The source gives no read counts; variants with many changes may rest on few reads.

Sequences and labels used below:
B1: LINE1-full (parent)
chain: UACGUAGGUGGUUUUCCCCUGAUAGUGCUAAGGGGGCCUGGAAGUUUGGACUGGGCAGAGCUCAACACAGCGUGGCAAAGUGGCUGUGGCUAGACUGCCUCUCUGGAUUCCUCGUCACUCAGCAGGGCAUCUCUGAGAGAAAUGCC

The variants in the data set derive from B1. Briefly: self-cleavage, relative activity (ratio to wild type); higher = more cleavage; in vitro, sequencing; the parent is a self-cleaving ribozyme.
Regarding UACGUAGGUGGUUUUCCCCUGAUAGUGCUAAGGGGGCCUGGAAGUUUGGACUGGGCAGAGCUCAACACAGCGUGGCAAAGUGGCUGUGGCUAGACUGCCUCUCUGGAUUCCUCGCCACUCAGCAGGGCAUCUCUGAGUGAAACGCC [U115C A138U U143C], the self-cleavage worked out at 1.06.

Regarding UACGUAGGUGGUUUUCCCCUGAUUGUGCUAAGGGGGCCUGGAAGUUUGGACUGGGCAGAGCUCAACACAGCGUGACAAAGUGGCUGUGGAUAGACUGCCUCUCUGGAUUCCUCGUCACUCAGCAGGGCAUCUCUGAGAGAAAUGCC [A24U G75A C90A], the self-cleavage was determined as 0.05. On to UACGUAGGUGGUUUUCCCCUGAUAGUGCUAGGGGGGCCUGGAAGUUUGGACUGGGCAGAGCUCAACACAGCGUGGCGAGGUGGCUGUGGCUAGACUGCCUCUCUGGAUUACUCGUCACUCAGCAGGGCAUCUCUGAGAGAAGUGCC [A31G A77G A79G C110A A142G], for which the self-cleavage stood at 0. Consider UACGUAGGUGGUUUUCCCCUGAUAGUGCUAAGGGGGCCUGGAAGUUUGGACUGAGCAGAGCUCAACACAGCGUGGCAAGGUGGCUGUGGCUAGACUGCCUCUCUGGAUUCCUCGUCACUCAGCAGGGCACCUCUGAGAGAAAUGCC [G54A A79G U130C], for which the self-cleavage stood at 0.43. UACGUAGGUGGUUUUCCCCUGAUAGUGCUAAGGGGGCCUGGAAGUUCGGACUGGGCAGAGCUCGACACAGCGUGGCAGAGUGGCUGUGGCUAGACUGCCUCUCUGGAUUCCUCGUCACUCAGCAGGGCAUCUCUGAGAGAAAUGCC [U47C A64G A78G]: the self-cleavage came out at 0.19.

In the case of UACGUAGGUGGUUUUCCCCUGAUAGUGCUAAGGGGGCCUGGAAGCUUGGACUGGGCAGAGCUCAACACAGCGUGGCAAAGUGGCUGUGGCUAGACUGCCUCCAUGGAUUCCUCGUCACUCAGCAGGGCAUCUCUGAGAGAAAUGCC [U45C U102C C103A], the self-cleavage was determined as 2.3. With UACGUAGGUGGUAUUCCCCUGAUAGUGCUAAGGGGGCCUGGAAGUUUGGACUGGGCAGAGCUCAACCCAGCGUGGCAAAGUGGCUGUGGCUAGACUGCCUCUCUGGACUCCUCGUCACUCAGCAGGGCAUCUCUGAGAGAAAUGCC [U13A A67C U108C], the self-cleavage came to 0.18. With UACGUAGGUGGUUUUCCCCUGAUUGUGCUAAGGGGGCCUGGAAGUUUGGACUGGGCAGAGCUCAACACAGCGUGGCAAAGUGGCUGUGGCUAGACUGCCUCUCUGGAUACCUCGUCACUCAGCAGGGCAUCUCUGAGAGAGAUGCC [A24U U109A A141G] the figure was 1.59; with UACGUAGGUGGUUUUCCCCUGAUAGUGCUAAGGGGGCCUGGAAGUUUGGACUGGGCAGAGCUCAACGCAGCGUGGCAAAGUGGCUGUGGCUAGACUGCCUCUCUGGAUUCCUCGUCUCUCAGCAGGGCAUCUCAGAGAGAAAUGCC [A67G A117U U134A], 0.37; with UACGUAGGUGGUUUUCCCCUGAUAGUGCUAAGGGGGCCUGGAAAUAUGGACUGGGCAGAGCUCAACACAGCGUGGCUAAGUGGCUGUGGCUAGACUGCCUCUCUGGAUACCCCGUCACUCAGCAGGGCAUCUCUGAGGGAAAUGCC [G44A U46A A77U U109A U112C A138G], 1.17. As for UACGUAGGUGGUUUUCCCCUGAUAGUGCUAAGGGGGCCUGGAAGUUUGGACUGGGCAGAGCUCAACACAGCGAGGCAAAGUGGCUGUGGCUAGACUGCCUCACGGGAUUCCUCGUCACUCAGCAGGGCAUCUCUGAGAGAAAUGCC [U73A U102A U104G], the self-cleavage was found to be 1.78. On to UACGUAGGUGGUUUUCCCCUGAUAGUGCUAAGGGGGCCUGGAAGUUUGGACUGGGCAGAGCUCGACACAGCGUGGCAAUGUGGCUGCGGCUAGACUGCCUCUCUGGAUUCCUCGUCACUCAGCAGGGCAUCUCUGAGAGAAAUGCC [A64G A79U U87C], for which the self-cleavage was 0. In the case of UACGUAGGUGGUUUUCCCCUGAUAGUGCUAAGGGGGCCUGGGAGUUUGGACUGGGCAGAGCUCAACACAGCGCGGCAAAGUGGCUGUGGCUAGACUGCCUCUCUGGAUUCCUCGUCACUCAGCAGGGCAUCUCCGAGAGAAAUGCC [A42G U73C U134C], the self-cleavage turned out to be 0.38. For CACGUACGUGGUUUUCCCCUGAUAGUGCUAAGGGGGCCUGGAAGUUUGGACUGGGCAGAGCUCAACACAGCGUGGCAAAGUGGCUGUGGCUAGACUGCCUCUCUGGAUUCCUCGUCACUCAGCAGGGCAUCUCUGAGAGAAAUACC [U1C G7C G144A], the self-cleavage turned out to be 1.02. With UACGUAGGUGGUUUUCCCCGGAUAGUGCAAAGGGGGCCUGGAAGUUAGGACUGGGCAGAGCUCAACACAGCGUGGCAAAGUGGCUGUGGCUAGACUGCCUCUCUGGAUUCCUCGUCACUCAGCAGGGCAUCUCUGAGAGAAAUGCC [U20G U29A U47A] the figure was 0.96; with UACGUAGGUGGUUUUCCCCUGAUAGUGCUAAGGGGGCCUGGAAGCUUGGACUGGGCAGAGCUCAACACAGCGUGGCAGAGUGGCUGUGGCUAGACUGCCUCUCUGGAUUCCUCGUCACUCAGCAGGGCGUCUCUGAGAGAAAUGCC [U45C A78G A129G], 1.41; with UACGUAGGUGGUUUUCCCCUGGUAGUGCUAAGGGGGCCCGGAAGUUUGGACUGGGCAGAGCUCAACACAGCGUGGCAGAGUGGCUGUGGCUAGACUGCCCCUCUGGAUUCCUCGUCACUCAGCAGGGCAUCUCUGAGAGAAAUGCC [A22G U39C A78G U100C], 0.84. UACGUAGGUGGUUUUCCCCGGAUAGUGCUAAGGGGGCCUAGAAGUUUGGACUGGGCAGAGCUCAACACAGCGUGGCGAAGUGGCUGUGGCUAGACUGCCUCUCUGGAUUCCUCGUCACUCAGCAGGGCAUCUCUGAGAGAAAUGCC [U20G G40A A77G]: the self-cleavage turned out to be 1.08.

As to UACGUAGGUGGCUUUCCCCUUAUAGUGCUAAGGGGGCCUGGAAGUUUGGACUGGGCAGAGCUCAACACAGCGUGGCAAAGUGGCUGUGGCUAGACUGCCUCUCUGGAUUCCUCGUCGCUCAGCAGGGCAUCCCUGAGAGAAAUGCC [U12C G21U A117G U132C], the self-cleavage is 1.6.

Source of the values: the RNAGym collection of RNA variant scans (doi:10.7554/elife.90254).
